The campaign covered roughly 3,200 compounds. About 300 (9.4%) showed activity. Only a part is listed here, and it is no random draw.
Tested on: A673/TR/shEF
Experiment: cell viability (LOESS-normalised, relative to median of negative controls) (log2 ratio); higher = more viable cells (less compound effect), active = hit call of the paper (over 3 MAD below the median)
Settings: treatment time: 72 h
Method in brief: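 A673/TR/shEF Ewing sarcoma cells (1,500 per well, 384-well plates) were grown with or without doxycycline to induce EWS-FLI1 shRNA knockdown, starting 24 h before compounds. Library compounds at two or more concentrations, with DMSO controls, were added for three days. Cell viability was read by CellTiter-Glo luminescence on an Envision reader, then LOESS-corrected per plate, divided by the median of negative controls and log2-transformed. Hits were wells at least three median absolute deviations from the median of all screened wells.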

[1] = 0.103 µM, library screen: screen3, EWS-FLI1 expression: high (no doxycycline)
[2] = 0.103 µM, library screen: screen3, EWS-FLI1 expression: low (doxycycline-induced shRNA knockdown)
[3] = 0.308 µM, library screen: screen3, EWS-FLI1 expression: high (no doxycycline)
[4] = 0.308 µM, library screen: screen3, EWS-FLI1 expression: low (doxycycline-induced shRNA knockdown)
[5] = 0.926 µM, library screen: screen3, EWS-FLI1 expression: high (no doxycycline)
[6] = 0.926 µM, library screen: screen3, EWS-FLI1 expression: low (doxycycline-induced shRNA knockdown)
[7] = 2.8 µM, library screen: screen3, EWS-FLI1 expression: high (no doxycycline)
[8] = 2.8 µM, library screen: screen3, EWS-FLI1 expression: low (doxycycline-induced shRNA knockdown)
[9] = 8.3 µM, library screen: screen3, EWS-FLI1 expression: high (no doxycycline)
[10] = 8.3 µM, library screen: screen3, EWS-FLI1 expression: low (doxycycline-induced shRNA knockdown)
[11] = 25 µM, library screen: screen3, EWS-FLI1 expression: high (no doxycycline)
[12] = 25 µM, library screen: screen3, EWS-FLI1 expression: low (doxycycline-induced shRNA knockdown)
[13] = 0.25 µM, library screen: screen1, EWS-FLI1 expression: high (no doxycycline)
[14] = 0.25 µM, library screen: screen1, EWS-FLI1 expression: low (doxycycline-induced shRNA knockdown)
[15] = 0.25 µM, library screen: screen2, EWS-FLI1 expression: high (no doxycycline)
[16] = 0.25 µM, library screen: screen2, EWS-FLI1 expression: low (doxycycline-induced shRNA knockdown)
[17] = 2.5 µM, library screen: screen1, EWS-FLI1 expression: high (no doxycycline)
[18] = 2.5 µM, library screen: screen1, EWS-FLI1 expression: low (doxycycline-induced shRNA knockdown)
[19] = 2.5 µM, library screen: screen2, EWS-FLI1 expression: high (no doxycycline)
[20] = 2.5 µM, library screen: screen2, EWS-FLI1 expression: low (doxycycline-induced shRNA knockdown)

Measured: cell viability (log2)

C#C[C@]1(O)C=C[C@H]2[C@@H]3CCC4=CC(=O)CC[C@@H]4[C@H]3CC[C@@]21CC
inactive: [1] -0.0375 | [2] 0.0598 | [3] -0.000217 | [4] 0.0405 | [5] -0.0178 | [6] 0.0411 | [7] 0.00995 | [8] 0.0219 | [9] 0.0185 | [10] 0.0303 | [11] -0.0179 | [12] 0.101

CC1(C(=O)O)C2CCC(O2)C1(C)C(=O)O (stereo not drawn)
active: 25 µM, library screen: screen1, EWS-FLI1 expression: high (no doxycycline) -0.932 | 25 µM, library screen: screen1, EWS-FLI1 expression: low (doxycycline-induced shRNA knockdown) -0.597
inactive: 0.025 µM, library screen: screen1, EWS-FLI1 expression: high (no doxycycline) 0.144 | 0.025 µM, library screen: screen1, EWS-FLI1 expression: low (doxycycline-induced shRNA knockdown) -0.0798 | [13] 0.0748 | [14] -0.099 | [15] 0.137 | [16] 0.0724 | [17] -0.00382 | [18] -0.0912 | [19] 0.0145 | [20] 0.0152

CC(C)(C)NCC(O)c1ccccc1Cl (stereo not drawn)
inactive: [13] 0.163 | [14] 0.0576 | [15] 0.223 | [16] 0.0914 | [17] 0.0916 | [18] 0.0437 | [19] 0.0908 | [20] 0.0575

COC(=O)/C=C(\C)OP(=O)(OC)OC
inactive: [13] -0.00893 | [14] -0.0133 | [17] 0.034 | [18] 0.0603

O=C1NC(=O)C(=O)C(=O)N1
inactive: [13] 0.0702 | [14] 0.00675 | [17] 0.14 | [18] 0.0562

CC(C)c1ccc2c(c1O)CCC1C3=C(CCC21C)C(=O)OC3 (stereo not drawn)
inactive: [13] 0.0257 | [14] 0.104 | [17] 0.151 | [18] 0.343

CN(C)C(=S)SSC(=S)N(C)C
active: [13] -2.91 | [14] -2.1 | [17] -2.99 | [18] -2.02

CO[C@]12C[C@@H](COC(=O)c3cncc(Br)c3)CN(C)[C@@H]1Cc1cn(C)c3cccc2c13
inactive: [13] 0.137 | [14] -0.0115 | [17] 0.157 | [18] 0.125

C[C@H]1C(=O)O[C@@H]2CCN3CC=C(COC(=O)[C@](C)(O)[C@]1(C)O)[C@H]23
inactive: 0.025 µM, library screen: screen2, EWS-FLI1 expression: high (no doxycycline) 0.0665 | 0.025 µM, library screen: screen2, EWS-FLI1 expression: low (doxycycline-induced shRNA knockdown) 0.0541 | [13] 0.00981 | [14] 0.0549 | [15] 0.122 | [16] 0.0363 | [17] 0.0901 | [18] 0.111 | [19] 0.0833 | [20] 0.0416 | 25 µM, library screen: screen2, EWS-FLI1 expression: high (no doxycycline) 0.0406 | 25 µM, library screen: screen2, EWS-FLI1 expression: low (doxycycline-induced shRNA knockdown) 0.0625

NCc1cc(=O)[nH]o1
inactive: [15] 0.179 | [16] 0.0332 | [19] -0.00258 | [20] 0.109

CCCN(CCC)[C@@H]1CCc2cccc(O)c2C1
inactive: [15] 0.0735 | [16] 0.0396 | [19] 0.0488 | [20] 0.128

C[N+]12CCC(CC1)C(OC(=O)C(O)(c1ccccc1)c1ccccc1)C2 (stereo not drawn)
inactive: [13] 0.193 | [14] 0.204 | [17] 0.163 | [18] 0.21

CC(=O)OC1CC(OC2C(O)CC(OC3C(O)CC(OC4CCC5(C)C(CCC6C5CC(O)C5(C)C(C7=CC(=O)OC7)CCC65O)C4)OC3C)OC2C)OC(C)C1OC1OC(CO)C(O)C(O)C1O (stereo not drawn)
active: [17] -2.91 | [18] -3.01

CCCN1CCc2cc(O)cc3c2[C@H]1Cc1ccc(O)c(O)c1-3
inactive: [15] 0.252 | [16] 0.00394 | [19] 0.189 | [20] -0.00517

COc1cc2c(cc1OC)[C@@H]1C(=O)c3ccc4oc(C(C)C)cc4c3O[C@@H]1CO2
inactive: [13] 0.0223 | [14] 0.0518 | [18] -0.129
active: [17] -0.307

C[C@]12CC[C@H](O)C[C@H]1CC[C@@H]1[C@@H]2[C@H](O)C[C@]2(C)[C@@H](C3=CC(=O)OC3)CC[C@]12O
active: [17] -0.259 | [18] -0.409

COc1cc([C@@H]2c3cc4c(c(O)c3C[C@H]3COC(=O)[C@@H]32)OCO4)cc(OC)c1OC
active: [17] -3 | [18] -0.852
inactive: [13] 0.0843 | [14] 0.0231

CC(=O)NBr
inactive: [15] 0.153 | [16] 0.0844 | [19] 0.141 | [20] 0.0566

Cc1c2ccncc2c(C)c2c1[nH]c1ccccc12
inactive: [15] 0.0843 | [16] 0.00884 | [20] -0.00745
active: [19] -0.136

COc1cccc(CN2CCN(Cc3cccc(F)c3)CC2)c1
inactive: [13] 0.0335 | [14] 0.131 | [17] 0.0329 | [18] 0.0279

CC(C)NP(=O)(NC(C)C)OP(=O)(NC(C)C)NC(C)C
inactive: [15] 0.195 | [16] 0.0938 | [19] 0.326 | [20] 0.0713

Oc1ccc(Cl)cc1
inactive: [13] 0.148 | [14] 0.145 | [17] 0.212 | [18] 0.167

N#CCCN
inactive: [15] 0.178 | [16] 0.0325 | [19] 0.0955 | [20] 0.0681

C=C(C)[C@@H]1[C@H]2OC(=O)[C@@H]1[C@]1(O)C[C@H]3O[C@]34C(=O)O[C@H]2[C@]14C
inactive: [13] 0.0904 | [14] 0.0443 | [17] 0.13 | [18] 0.128

CC(=O)Oc1ccc(Cl)c2cccnc12
inactive: [13] 0.106 | [14] 0.136 | [17] 0.0698 | [18] 0.0992

O=P1(NCCCl)OCCCN1CCCl (stereo not drawn)
inactive: [1] 0.0536 | [2] 0.037 | [3] 0.0929 | [4] 0.0327 | [5] 0.108 | [6] 0.0888 | [7] 0.143 | [8] 0.0339 | [9] 0.0862 | [10] 0.0777 | [11] 0.0979 | [12] 0.0524

NC(=O)CN1CCCC1=O
inactive: [13] 0.113 | [14] -0.0157 | [15] 0.159 | [16] 0.117 | [17] 0.198 | [18] -0.00602 | [19] 0.124 | [20] 0.0664

COc1cc2c(cc1OC)C(C)NCC2 (stereo not drawn)
inactive: [13] 0.121 | [14] 0.123 | [17] 0.193 | [18] 0.143

Reference: the supplement of paper PMC6089552
